Experimental data: the RNAGym collection of RNA variant scans (doi:10.7554/elife.90254)
Read counts are not given, so values of variants with three or more changes are uncertain.

B1: LINE1-mini (parent)
chain: GGCAGAGCUCAACACAGCGUGGCAAAGUGGCUGUGGCUAGACUGCC

Variants of: B1
Assay: self-cleavage, relative activity (ratio to wild type); higher = more cleavage; in vitro, sequencing; the parent is a self-cleaving ribozyme
In the case of GGCAGAGCUCAACAGAGCGUGACAAAGGGGCCGUGGCUAGACUGCC [C15G G22A U28G U32C], the self-cleavage is reported as 0.01. For GGCAGAGCUCAACAUAGGGUGGCAAGGUGGCUGUGUAUCGACUGCC [C15U C18G A26G G36U C37A A39C], the self-cleavage was 0.01. Work on GGCAGAGCUCAACAGAGAGUGGCAAACUGGCUGUGGCUAGACUGCC [C15G C18A G27C] yielded a self-cleavage of 0.03. With GGCAGAGCUCAACAGAGCGUGGCAUAGUGGAUGUGGCUAGACUGCC [C15G A25U C31A] the self-cleavage was 0.01. Variant GGCAGAGCUCAACAUAGCGUGGAAAAGUGGCUGUGGCUAGACUGCG [C15U C23A C46G] has a self-cleavage of 0.97. Variant GGCAGAGCUCAACAUCGCGGGGCAAAAAGGCUGUGGCUACACUGCC [C15U A16C U20G G27A U28A G40C] has a self-cleavage of 0.04. With GGCAGAGCUCAACAAAGCGGGGCAAAGUGGCUGUUGCUAGACUGCG [C15A U20G G35U C46G] the self-cleavage was 0.01. Variant GGCAGAGCUCAACAUAGCGUGGCAUAGUGGCUGUGGCUAGACUGCG [C15U A25U C46G] has a self-cleavage of 0.19. With GGCAGAGCUCAACAGAGCGUGGCAAAAUGGCUGUGGCUAGACUGCA [C15G G27A C46A] the self-cleavage was 0.04. For GGCAGAGCUCAACAGACCGUGGCAAAGUGGCUGUGUCUAGACCGCC [C15G G17C G36U U43C], the self-cleavage was 0.01. For GGCAGAGCUCAACAGUGCGUGGCAAAGUGGCUGUGGCUAAACUGGC [C15G A16U G40A C45G], the self-cleavage was 0.04. Variant GGCAGAGCUCAACAGAGCGUGGUAAAGUGGCUGUGGCUAGACUGCG [C15G C23U C46G] has a self-cleavage of 0.04. Work on GGCAGAGCUCAACAGGGCGUGGCAAAGUGGCUGUGGCUAGACUACC [C15G A16G G44A] yielded a self-cleavage of 0.08. GGCAGAGCUCAACAAAGCGUGGCAAAGUGCCUGUGACUAGACUGCC [C15A G30C G36A] gave a self-cleavage of 0.02. GGCAGAGCUCAACAGAGCGUGGCAAAGUGGCUGUGGCUUGACUGGC [C15G A39U C45G] showed a self-cleavage of 0.02. GGCAGAGCUCAACAGAGGGUGGCAAAGUGUCUGUGGCUAGACUGCC [C15G C18G G30U] gave a self-cleavage of 0.05. GGCAGAGCUCAACAGGGCGUGGCAAAUUGGCUGUGGCUAGACUGCC [C15G A16G G27U] gave a self-cleavage of 0.03. Variant GGCAGAGCUCAACAAAGCGUGGCAAAGUUGUUGUGGCUAGACUGCC [C15A G29U C31U] has a self-cleavage of 0.02. Work on GGCAGAGCUCAACAUAGCGUGGCAACGUGGCUGUGGCUAGCCUGCC [C15U A26C A41C] yielded a self-cleavage of 0.06. GGCAGAGCUCAACAGAGCGUGGCAAAGUGGCUGUGGCAAUACUGCC [C15G U38A G40U] gave a self-cleavage of 0.01. Work on GGCAGAGCUCAACAGAGCGUGGCAAAAUGGCUUUGGUUAGACUGCC [C15G G27A G33U C37U] yielded a self-cleavage of 0.03. GGCAGAGCUCAACAGAGCGUGUCAAAGUGGCUGUUGCUAGACUGCC [C15G G22U G35U] gave a self-cleavage of 0.06. Work on GGCAGAGCUCAACAAAGCGUGGCAAAGUUGCUGUGGCUAGACUACC [C15A G29U G44A] yielded a self-cleavage of 0.03. In the case of GGCAGAGCUCAACAAAGCGUGGCAAAGGGGCCGUGGCUAGACUGCC [C15A U28G U32C], the self-cleavage is reported as 0.02. With GGCAGAGCUCAACAGAGCGUGGCAAAGUGGAUUUGGUAAGACUGCC [C15G C31A G33U C37U U38A] the self-cleavage was 0.02. For GGCAGAGCUCAACAAAGCGUCGCAAAGUGGCUGUGGCUAGAUUGCC [C15A G21C C42U], the self-cleavage was 0.02. In the case of GGCAGAGCUCAACAGAGCGUGGCAAAGUGGUUGUGGUUAGACUGCC [C15G C31U C37U], the self-cleavage is reported as 0. In the case of GGCAGAGCUCAACAGAGCGUGGCCAAGUGGCUGGGGUUAGACUGCC [C15G A24C U34G C37U], the self-cleavage is reported as 0.01. GGCAGAGCUCAACAUAGCGUGGCAUUGCGGUUGUGGCUAGACUGCC [C15U A25U A26U U28C C31U] gave a self-cleavage of 0.04. GGCAGAGCUCAACAGAGCUUGGCAAAGUUGCUGUGGCUAGACUGCC [C15G G19U G29U] gave a self-cleavage of 0.02. Work on GGCAGAGCUCAACAGAGCGUGGCGAAGAGGCUGUGGCUAGACUGCC [C15G A24G U28A] yielded a self-cleavage of 0.02. For GGCAGAGCUCAACAAAGCGUGGCAAAGUGACUGUGGGUAGACUUCC [C15A G30A C37G G44U], the self-cleavage was 0.03. For GGCAGAGCUCAACAGAGCGUAGCAAAGAGGCUGUGGCUAGACUGCG [C15G G21A U28A C46G], the self-cleavage was 0.02. For GGCAGAGCUCAACAUAGCGUGGCAGAUUGGCUGUGGCUAGACUGCC [C15U A25G G27U], the self-cleavage was 0.1. Variant GGCAGAGCUCAACAAAGCGUGGCAAAGUGUCAGUGGCUAGAGUGCC [C15A G30U U32A C42G] has a self-cleavage of 0.04. GGCAGAGCUCAACAAAGCGUGGCAAAGAGGCUGUGUCUAGACAGCC [C15A U28A G36U U43A] gave a self-cleavage of 0.02. In the case of GGCAGAGCUCAACAGAGCGUGGCAAAGUGGCUAUAGCUAGACUGGC [C15G G33A G35A C45G], the self-cleavage is reported as 0.02. In the case of GGCAGAGCUCAACAGGGCGUGGCAAAGUGGCUGUGGCCAGACUGCC [C15G A16G U38C], the self-cleavage is reported as 0.33. For GGCAGAGCUCAACAAAGCGUGGCAAAGUGACUGUAGCUAGACCGCC [C15A G30A G35A U43C], the self-cleavage was 0.07. Work on GGCAGAGCUCAACAAAGCUUAGCAAAGUGGCUGUCGCUAGUCUGCC [C15A G19U G21A G35C A41U] yielded a self-cleavage of 0.02. GGCAGAGCUCAACAGACCGUGGCAAAGUGGCUCUGGCUAGAAUGCC [C15G G17C G33C C42A] showed a self-cleavage of 0.01. Work on GGCAGAGCUCAACAGAGCAUGGCAAGGUUGCUGUGGCUAGACUGCC [C15G G19A A26G G29U] yielded a self-cleavage of 0.12. Variant GGCAGAGCUCAACAAAGCGUGGCAAAGUGGCUAUGUCUAGACCGCC [C15A G33A G36U U43C] has a self-cleavage of 0.02. GGCAGAGCUCAACAUAGCGUGGCAGAGUGGCUGUGGCUAGACUUCC [C15U A25G G44U] gave a self-cleavage of 0.02. GGCAGAGCUCAACAAAGCGUUGCAAAGUGGCUGUGGCUAGACGGGA [C15A G21U U43G C45G C46A] showed a self-cleavage of 0.01. Work on GGCAGAGCUCAACAGAGAGUGGCAGAAUGGCUGUGGCUAGACUGCC [C15G C18A A25G G27A] yielded a self-cleavage of 0. With GGCAGAGCUCAACAAAGCGUGACAAAGCGGCUGUGGCUAGACUGCA [C15A G22A U28C C46A] the self-cleavage was 0.06. For GGCAGAGCUCAACAAAGCGUGGCAAAGUGACUGUGGCGAGAUUGCC [C15A G30A U38G C42U], the self-cleavage was 0.01. With GGCAGAGCUCAACAGAGCGUGGCAAAGUGGCUAUGGCUAAACUGCC [C15G G33A G40A] the self-cleavage was 0.03. With GGCAGAGCUCAACAAAGCUUGGCAAGGUGGCUGUGGCUAGACUGCC [C15A G19U A26G] the self-cleavage was 0.06. GGCAGAGCUCAACAUAGCGUGGAAAAGUGGCUGUAGCUAGACUGCC [C15U C23A G35A] showed a self-cleavage of 0.11. In the case of GGCAGAGCUCAACAGAGCGUGGAAAAGUGGCUGUGGCUAUACCGCC [C15G C23A G40U U43C], the self-cleavage is reported as 0. GGCAGAGCUCAACAGAGCGUGGCAAAGUGACAGUGGCUAGACUGCC [C15G G30A U32A] showed a self-cleavage of 0.02. Work on GGCAGAGCUCAACAUAGCGUGGCAGAGUGGGUGUGGGAAGAAUGCC [C15U A25G C31G C37G U38A C42A] yielded a self-cleavage of 0.03. GGCAGAGCUCAACAGAGCGUUGCGAAGGGACUUUGGCUAGACUGCC [C15G G21U A24G U28G G30A G33U] showed a self-cleavage of 0.02. With GGCAGAGCUCAACAUAGCGUGGAACAGUGGCUGUGGCUAGACUGCC [C15U C23A A25C] the self-cleavage was 0.25.
